# Reference: PubChem BioAssay AID2675 (National Center for Advancing Translational Sciences (NCATS), 2010)
# About 100 (0.036%) of roughly 280,000 compounds were called active. The inconclusive results got no clear call from the source; some entries with a clear call stand among them for comparison. Calls follow the shape of the dose curve; as a rule, active = well fitted inhibition curve with a large enough effect in the signal ratio, with a control signal flat (not every such curve was filed as active); inconclusive = small, poorly fitted or top-dose-only effect, or effect the other way, or a change in a side signal; inactive = no such curve, though single readings can be large or run the other way; the % refers to the signal ratio. Potencies beside an inconclusive call are fits to weak or partial responses and may not hold up. “Side channel” marks fits to a control or component signal instead of the main read-out.
# Molecular target: Muscleblind-like protein 1 (Homo sapiens) (UniProt Q9NR56)
# Chain of UniProt Q9NR56 (Q9NR56 whole entry, looked up): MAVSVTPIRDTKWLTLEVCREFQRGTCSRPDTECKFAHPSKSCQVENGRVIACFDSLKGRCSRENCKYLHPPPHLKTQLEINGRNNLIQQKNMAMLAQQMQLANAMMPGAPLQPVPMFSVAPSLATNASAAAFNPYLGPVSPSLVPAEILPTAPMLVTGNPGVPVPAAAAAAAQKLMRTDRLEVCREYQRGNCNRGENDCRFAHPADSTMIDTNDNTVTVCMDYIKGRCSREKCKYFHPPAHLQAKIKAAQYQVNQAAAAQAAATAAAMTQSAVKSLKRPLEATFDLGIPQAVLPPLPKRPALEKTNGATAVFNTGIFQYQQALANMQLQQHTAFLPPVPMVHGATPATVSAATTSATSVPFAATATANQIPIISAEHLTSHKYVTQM
# Experiment: qHTS Assay for Inhibitors of MBNL1-poly(CUG) RNA binding
# Conditions: TR-FRET MBNL1-His/biotin-(CUG)12 binding, 665/545 ratio; series mostly up to 57.5 µM
# Outline: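 His-tagged MBNL1 binding to biotinylated (CUG)12 RNA was measured by TR-FRET using terbium anti-His antibody (0.055 ng/ul final) and streptavidin-XL665 (5 nM final). Compounds were titrated 92 nM to 58 uM; 60 min at room temperature.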
# Potency is read from the fitted curve at half-maximal effect; tags tell the direction and shape of the fitted curve or compound fluorescence and quenching.
row,SMILES,Potency
1,COc1cc(C2Nc3ccc4ccccc4c3C3=C2C(=O)CC(C)(C)C3)ccc1OCC(=O)O (stereo not drawn),inactive
2,CC(Oc1ccc(Br)cc1Cl)C(=O)Nc1ccncc1 (stereo not drawn),inactive
3,COc1ccc2cc(C(N)=O)/c(=N\NC(=O)c3ccccc3)oc2c1,"inconclusive: 7.08 µM [quencher, side channel, partial curve]"
4,Cc1nn(-c2ccccn2)c2c1C(=O)C(Br)CC2 (stereo not drawn),inactive
5,CCOc1cccc(CNc2ccc(O)cc2)c1OCc1ccc(Cl)cc1Cl,"inconclusive: 28.2 µM [quencher, side channel, partial curve]"
6,NC(=O)N/N=C/c1ccccc1OC(=O)c1cc2ccccc2oc1=O,"inconclusive: 10 µM [quencher, side channel, partial curve]"
7,CCOC(=O)c1c(C)[nH]c(N=Nc2cc(C(=O)O)cc(C(=O)O)c2)c1C,"inconclusive: 31.6 µM [quencher, single point]"
8,O=C(O)Cc1ccc(N=Cc2c(O)ccc3ccccc23)cc1,"inconclusive: 31.6 µM [quencher, side channel, single point]"
9,CC1=C(C)/C(=N/OC(=O)c2cccc([N+](=O)[O-])c2)C=CC1=O,"inconclusive: 20 µM [quencher, side channel, partial curve]"
10,CC(=O)c1ccc(-c2cccs2)s1,"inconclusive: 22.4 µM [quencher, side channel, partial curve]"
11,CCOC(=O)C1=C(O)c2ccccc2C(=O)/C1=C\c1ccc(CC)cc1,"inconclusive: 31.6 µM [quencher, single point]"
12,CCOC(=O)c1ccc(NC(=S)NNC(C)(C)C)cc1,inactive
13,CCOc1ccc(-c2csc(NC(=O)C3CCCO3)n2)cc1 (stereo not drawn),"inconclusive: 39.8 µM [quencher, side channel, single point]"
14,O=C(/C=C/c1cccnc1)c1ccc([N+](=O)[O-])cc1,"inconclusive: 12.6 µM [quencher, partial curve]"
15,CC(=O)Nc1ccc(Nc2cc(C)nc3c(-c4ccc(Cl)cc4)cnn23)cc1,inactive
16,CC(C)n1c(=N)c(C(=O)NCCc2ccccc2)cc2c(=O)n3ccccc3nc21,"inconclusive: 14.1 µM [quencher, side channel, partial curve]"
17,O=C(NC(=S)N1CCOCC1)C12CCC3CC(CC(C3)C1)C2,inactive
18,COCCNC(=O)C1CCCN(S(=O)(=O)c2c(C)noc2/C=C/c2cccs2)C1 (stereo not drawn),"inconclusive: 15.8 µM [quencher, side channel, partial curve]"
